Assay results from the NIST ThermoML archive (doi:10.1016/j.jct.2007.02.009).

Assay: molar heat capacity at constant pressure
Conditions: 101.33 kPa, Crystal

CC(=O)N(C)C [N,N-dimethylethanamide]
Conditions	molar heat capacity at constant pressure [J/K/mol]
5 K	0.228
6.92 K	0.654
7.22 K	0.721
7.62 K	0.856
7.95 K	0.956
8.51 K	1.18
8.93 K	1.36
9.84 K	1.79
10 K	1.83
10.33 K	2.07
10.83 K	2.43
11.29 K	2.742
11.7 K	3.069
12.1 K	3.374
12.61 K	3.72
13.29 K	4.32
13.96 K	4.896
14.26 K	5.14
14.96 K	5.759
15 K	5.81
15.61 K	6.387
16.27 K	7.06
16.97 K	7.732
17.42 K	8.207
18.07 K	8.888
18.72 K	9.611
19.38 K	10.29
20 K	10.93
20.02 K	10.92
21.56 K	12.62
23.94 K	15.34
25 K	16.56
26.36 K	18.13
28.82 K	20.87
30 K	22.16
31.29 K	23.55
33.76 K	26.25
35 K	27.55
36.25 K	28.88
38.9 K	31.36
40 K	32.51
41.64 K	34.1
43.46 K	36.93
45 K	37.34
45.94 K	38.28
48.42 K	40.59
50 K	42.13
50.91 K	42.85
51.46 K	43.5
53.35 K	45.21
55.83 K	47.45
60 K	50.8
60.25 K	51.13
62.19 K	52.56
64.67 K	54.1
67.15 K	55.76
69.64 K	57.42
70 K	57.65
72.11 K	58.89
74.59 K	60.29
77.07 K	61.68
79.55 K	63.16
80 K	63.33
82.02 K	64.43
83.12 K	65.08
85.89 K	66.5
87.54 K	67.33
88.87 K	67.93
90 K	68.54
90.32 K	68.74
91.85 K	69.31
93.29 K	70.17
94.81 K	71.08
97.78 K	72.39
100 K	73.44
100.75 K	73.58
101.54 K	74.26
103.72 K	75.3
106.68 K	76.66
109.65 K	78.11
109.85 K	78.17
110 K	78.3
112.61 K	79.7
115.42 K	80.92
118.23 K	82.25
120 K	83.09
121.2 K	83.39
126.62 K	86.14
129.43 K	87.3
130 K	87.55
130.8 K	88.05
132.43 K	88.71
135.24 K	89.8
138.2 K	91.13
140 K	91.87
141.16 K	92.37
144.13 K	93.62
147.1 K	94.78
147.67 K	95.28
150 K	96.03
150.06 K	96.03
150.47 K	96.03
153.03 K	97.28
153.45 K	97.28
155.99 K	98.44
158.96 K	100
160 K	100.3
161.92 K	101.4
164.85 K	102.1
164.89 K	102.5
166.41 K	103.2
167.72 K	103.5
169.39 K	104.4
170 K	104.6
170.51 K	104.8
173.48 K	106.3
176.44 K	107.3
179.4 K	108.5
180 K	108.8
182.37 K	109.7
185.33 K	111
188.29 K	112.3
190 K	113.1
191.26 K	113.7
194.22 K	115
197.19 K	116.2
198.32 K	116.8
199.97 K	117.7
